Reference: patent publication US20220411514A1, “ANTI-GAL3 ANTIBODIES AND METHODS OF USE FOR INSULIN RESISTANCE” (TrueBinding, Inc., priority 2021, published 2022)

Experiments:
[1] = target: T1, Human Gal3 peptides (Homo sapiens, UniProt P17931); test: Gal3 peptide binding ELISA (Example 8); conditions: antibody 5 μg/mL
T1 construct: purchased LifeTein custom order
Experimental: Gal3 peptide binding activity of additional exemplary anti-Gal3 antibodies was assessed with the same peptides as described in FIG. 18 (SEQ ID NOs: 3-26). Human Gal3 peptides (LifeTein, custom order) and human Gal3 proteins (R&D Systems, 8259-GA; TrueBinding, QCB200349) were diluted in PBS (Corning, 21-030-CM) to concentrations of at least 100 μg/mL (peptides) or 1 μg/mL (proteins), and added to the wells of several 96-well ELISA plates (Thermo Fisher, 44-2404-21). After incubating the plates at 4° C. overnight, the plates were washed three times with PBST (PBS with 0.05% Tween 20 [VWR, 0777]). The plates were then blocked for an hour with 2% BSA (EMD Millipore, 126609) in PBST at room temperature with gentle rocking. Thereafter, the 2% BSA in PBST was discarded and Gal3-binding antibodies (reformatted hIgG4 [S228P]) were diluted in 2% BSA in PBST to concentrations of 5 μg/mL and added to the wells. The plates were incubated for an hour at room temperature with gentle rocking and then washed three times with PBST. Afterwards, Peroxidase AffiniPure F(ab′)2 Fragment Goat Anti-Human IgG (H+L) polyclonal antibody (Jackson ImmunoResearch, 109-036-003), was diluted in 2% BSA in PBST (1:4000) and added to the wells. The plates were incubated for 1 hour at room temperature with gentle rocking and then washed three times with PBST. TMB substrate (Thermo Scientific, 34029) was then added to each well. The reaction was stopped with 1M HCl (JT Baker, 5620-02) and read using a plate reader (Molecular Devices) at absorbance of 450 nm.

[2] = target: T2, hGal3 peptide (Homo sapiens, UniProt P17931); test: Gal3 peptide library binding ELISA (Example 2)
T2 construct: a library of 24 amino acid peptides representing portions of Gal3
Experimental: To identify the epitopes to which Gal3 antibodies with and without Gal3-INSR blocking activity bound, a library of 24 amino acid peptides representing portions of Gal3, depicted in FIG. 18, was produced and the ability of each peptide to bind Gal3 antibodies was evaluated by ELISA. At least 2 μg/ml of hGal3 peptide in 50 μl of PBS or 0.1 μg/ml of full-length human Gal3 protein (GenScript) and human Galectin-3 protein (Acro Biosystems, GA3-H5129) were diluted in PBS (Corning, 21-030-CM) to concentrations of at least 2 μg/ml or 0.1 μg/ml, respectively, and added to the wells of a 96-well ELISA plate (Thermo Fisher, 44-2404-21). After incubating the plate at 4° C. overnight, the plate was washed three times with PBST (PBS with 0.05% Tween 20 [VWR, 0777]). The plate was then blocked for an hour with 2% BSA (EMD Millipore, 126609) in PBST at room temperature with gentle rocking. Thereafter, the 2% BSA in PBST was discarded and human Galectin-3 hybridoma supernatants or antibodies were diluted in 2% BSA in PBST to concentrations of at least 0.1 μg/ml and added to the wells. The plate was incubated for an hour at room temperature with gentle rocking and then washed three times with PBST. Afterwards, Goat Anti-Mouse IgG-HRP (Jackson ImmunoResearch, 115-036-1461) or Goat Anti-Rat IgG HRP (Abcam, ab205720) diluted in 2% BSA in PBST (1:4000) were added to the wells. The plate was incubated for 30 minutes to 1 hour at room temperature with gentle rocking and then washed three times with PBST. TMB substrate (Thermo Scientific, 34029) was then added to each well. The reaction was stopped with 1M HCl (JT Baker, 5620-02) and read using a plate reader (Molecular Devices) at absorbance of 450 nm.

Molecule | binding to Gal3 peptide 6 (SEQ ID NO: 8) [1] | binding to Gal3 peptide 4 (SEQ ID NO: 6) [1] | binding to Gal3 peptide 6 (amino acids 51-70, SEQ ID NO: 8) [2] | other results
847.12C4: anti-Gal3 antibody (antibody, V domains shown) VH: QVQLKESGPDLVQPSQTLSLTCTVSGFSLTIYGVHWVRQPPGKGLEWVGTVAWDDKKYYNSPLQSRLSISRDTSKNQVFLKLSSLQTEDTAMYYCTMTGGPINYWGPGTSVTVSS VL: DVVMTQTPLTLSVTIEQTASISCKSSQSLLDRDGKTYLNWLLQRPGQSPKRLIYLVSKLDSGVPDRFTGSGSGTDFTLKISRVEAEDLGVYYCWQGTHFPTFGGGTKLEIK |  |  |  | binding to Gal3 peptide 2 (SEQ ID NO: 4) [1]: bound; binding to Gal3 peptide 3 (SEQ ID NO: 5) [1]: bound; binding to Gal3 peptide 9 (SEQ ID NO: 11) [1]: bound; binding to Gal3 peptide 10 (SEQ ID NO: 12) [1]: bound
F846TC.16B5: anti-Gal3 antibody (antibody, F846TC.16B5 heavy chain peptide sequence; F846TC.16B5 light chain peptide sequence, anti-Gal3 antibody) heavy: QIQLVQSGPELKKPGETVKISCKASGYTFTNYGMNWVKQAPGKGLKWMGWINTYTGEPAYADDFKGRFAFSLETSASTAYLQINNLKNEDMATYFCARWGGYDGDYYAMDYWGQGTSVTVSSASTKGPSVFPLAPCSRSTSESTAALGCLVKDYFPEPVTVSWNSGALTSGVHTFPAVLQSSGLYSLSSVVTVPSSSLGTKTYTCNVDHKPSNTKVDKRV[in this place human IgG4 Fc with S228P (EU numbers)] light: NIMMTQSPSSLAVSAGEKVTMSCKSSQSVLYSSNQKNYLAWYQQKPGQSPKLLIYWASTRESGVPDRFTGSGSGTDFTLTISSVQAEDLAVYYCHQYLSSLTFGAGTKLELKRTVAAPSVFIFPPSDEQLKSGTASVVCLLNNFYPREAKVQWKVDNALQSGNSQESVTEQDSKDSTYSLSSTLTLSKADYEKHKVYACEVTHQGLSSPVTKSFNRGEC | bound |  |  | binding to Gal3 peptide 17 (SEQ ID NO: 19) [1]: bound
14H10.2C9: anti-Gal3 antibody (antibody, 14H10.2C9 heavy chain peptide sequence; 14H10.2C9 light chain peptide sequence, anti-Gal3 antibody) heavy: QIQLVQSGPELKKPGETVKISCKASGYTFTTYGMGWVKQAPGKDLKWMGWINTYSGVPTYADDFKGRFAFSLETSASTAYLQISNLKNEDTATYFCSTPYEYDGAYWGQGTLVTVSAAKTTPPSVYPLAPVCGDTTGSSVTLGCLVKGYFPEPVTLTWNSGSLSSGVHTFPAVLQSDLYTLSSSVTVTSSTWPSQSITCNVAHPASSTKVDKKIEPRGPTIKPCPPCKCPAPNAAGGPSVFIFPPKIKDVLMISLSPIVTCVVVDVSEDDPDVQISWFVNNVEVHTAQTQTHREDYNSTLRVVSALPIQHQDWMSGKEFKCKVNNKDLGAPIERTISKPKGSVRAPQVYVLPPPEEEMTKKQVTLTCMVTDFMPEDIYVEWTNNGKTELNYKNTEPVLDSDGSYFMYSKLRVEKKNWVERNSYSCSVVHEGLHNHHTTKSFSRTPGK light: DVVMTQTPLTLSVTIGQPASISCKSSQSLFDSDGKTYLNWLLQRPGQSPKRLIYLVSKLDSGVPDRFTGSGSGTDFTLKISRVEAEDLGVYYCWQGTHFPLTFGAGTKLEMKRADVAPTVSIFPPSSEQLTSGGASVVCFLNNFYPKDINVKWKIDGSERQNGVLNSWTDQDSKDSTYSMSSTLTLTKDEYERHNSYTCEATHKTSTSPIVKSFNRNEC | bound |  | bound | binding to Gal3 peptide 7 (amino acids 61-80, SEQ ID NO: 9) [2]: bound; binding to Gal3 peptide 7 (SEQ ID NO: 9) [1]: bound
3B11.2G2: anti-Gal3 antibody (antibody, 3B11.2G2 heavy chain peptide sequence; 3B11.2G2 light chain peptide sequence, anti-Gal3 antibody) heavy: QIQLVQSGPELKKPGETVKISCKTSGYKFKTYVMSWVKQAPGKALKWMGWINTYSGVPTYADDFKGRFAFSLETSASTAYLEIINLKNEDTATYFCARDGNYGDPMDYWGQGTSVTVSSAKTTPPSVYPLAPVCGDTTGSSVTLGCLVKGYFPEPVTLTWNSGSLSSGVHTFPAVLQSDLYTLSSSVTVTSSTWPSQSITCNVAHPASSTKVDKKIEPRGPTIKPCPPCKCPAPNAAGGPSVFIFPPKIKDVLMISLSPIVTCVVVDVSEDDPDVQISWFVNNVEVHTAQTQTHREDYNSTLRVVSALPIQHQDWMSGKEFKCKVNNKDLGAPIERTISKPKGSVRAPQVYVLPPPEEEMTKKQVTLTCMVTDFMPEDIYVEWTNNGKTELNYKNTEPVLDSDGSYFMYSKLRVEKKNWVERNSYSCSVVHEGLHNHHTTKSFSRTPGK light: DVVMTQTPLTLSVAIGQPASISCKSSQSLLYTNGKTYLNWLLQRPGQSPKRLIYLVSKLDSGVPDRFSGSGSGTDFTLKISRVEAEDLGVYYCLQSTHFPLTFGAGTKLELKRADVAPTVSIFPPSSEQLTSGGASVVCFLNNFYPKDINVKWKIDGSERQNGVLNSWTDQDSKDSTYSMSSTLTLTKDEYERHNSYTCEATHKTSTSPIVKSFNRNEC | bound | bound | bound | binding to Gal3 peptide 4 (amino acids 31-50, SEQ ID NO: 6) [2]: bound

Second part, led by results:

binding to Gal3 peptide 6 (SEQ ID NO: 8) [1] | binding to Gal3 peptide 4 (SEQ ID NO: 6) [1] | binding to Gal3 peptide 6 (amino acids 51-70, SEQ ID NO: 8) [2] | Molecule | other results
 | bound |  | 847.27B9: anti-Gal3 antibody (antibody, V domains shown) VH: QIQLVQSGPELKKPGETVKISCKASGYTFTNYGMNWVKQAPGKGLKWMGWINTNTGEPTYAEEFKGRFAFSLETSASTAYLQINYLKNEDTATFFCARLDYDYDEDYWGQGTTLTVSS VL: DVVMTQTPLTLSVTLGQPASISCRSSQSLLDSDGKTYLNWLLQRPGQSPKRLIYLVSRLDSGVPDRFTGSGSGTDFTLKISRVEAEDLGVYYCWQGTHFPFTFGGGTKLEIK | 
bound | bound | bound | 13A12.2E5: anti-Gal3 antibody (antibody, 13A12.2E5 heavy chain peptide sequence; 13A12.2E5 light chain peptide sequence, anti-Gal3 antibody) heavy: QIQLVQSGPELKKPGETVKISCKTSGYKFKTYVMSWVKQAPGKALKWMGWINTYSGVPTYADDFKGRFAFSLETSASTAYLEIINLKNEDTATYFCARDGNYGDPMDYWGQGTSVTVSSAKTTPPSVYPLAPVCGDTTGSSVTLGCLVKGYFPEPVTLTWNSGSLSSGVHTFPAVLQSDLYTLSSSVTVTSSTWPSQSITCNVAHPASSTKVDKKIEPRGPTIKPCPPCKCPAPNAAGGPSVFIFPPKIKDVLMISLSPIVTCVVVDVSEDDPDVQISWFVNNVEVHTAQTQTHREDYNSTLRVVSALPIQHQDWMSGKEFKCKVNNKDLGAPIERTISKPKGSVRAPQVYVLPPPEEEMTKKQVTLTCMVTDFMPEDIYVEWTNNGKTELNYKNTEPVLDSDGSYFMYSKLRVEKKNWVERNSYSCSVVHEGLHNHHTTKSFSRTPGK light: DVVMTQTPLTLSVAIGQPASISCKSSQSLLYTNGKTYLNWLLQRPGQSPKRLIYLLSKLDSGVPDRFSASGSGTDFTLKISRVEAEDLGVYYCLQSTHFPLTFGAGTKLEMKRADVAPTVSIFPPSSEQLTSGGASVVCFLNNFYPKDINVKWKIDGSERQNGVLNSWTDQDSKDSTYSMSSTLTLTKDEYERHNSYTCEATHKTSTSPIVKSFNRNEC | 
